Assay results published in the supplement of paper PMC4604168 (melanoma cell lines).
The other results are listed elsewhere or left out. Repeats are few or missing, and single values can be far off.

Tested on: A101D
Experiment: cell count relative to DMSO control; melanoma cells; higher = more viable cells
Settings: library dose: standard library concentration; 72 h
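Also: cells treated in 1,536-well plates, then fixed and DAPI-stained, with nuclei counted from automated high-throughput microscope images.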

SMILES	cell count
O=c1[nH]nc(Sc2ncc([N+](=O)[O-])s2)n1-c1ccc2c(c1)OCCO2 + C[C@]12O[C@H](C[C@]1(O)CO)n1c3ccccc3c3c4c(c5c6ccccc6n2c5c31)CNC4=O [Lestaurtinib] (first compound 1 µM, partner dose 0.02 µM)	73%
COc1cc([C@@H]2c3cc4c(cc3[C@@H](O[C@@H]3O[C@@H]5CO[C@@H](C)O[C@H]5[C@H](O)[C@H]3O)[C@H]3COC(=O)[C@H]23)OCO4)cc(OC)c1O [etoposide] + N.N.[Cl][Pt][Cl] [cisplatin] (first compound 0.1 µM, partner dose 8 µM)	68.6%
CC[C@]1(O)C[C@H]2CN(CCc3c([nH]c4ccccc34)[C@@](C(=O)OC)(c3cc4c(cc3OC)N(C=O)[C@H]3[C@@](O)(C(=O)OC)[C@H](OC(C)=O)[C@]5(CC)C=CCN6CC[C@]43[C@@H]65)C2)C1 [vincristine] + C[As](C)SC[C@H](NC(=O)CC[C@H](N)C(=O)O)C(=O)NCC(=O)O [Darinaparsin] (first compound 0.0005 µM, partner dose 2 µM)	29.4%
O=C(/C=C/c1cccnc1)NCCCCC1CCN(C(=O)c2ccccc2)CC1 + N.N.[Cl][Pt][Cl] [cisplatin] (first compound 0.05 µM, partner dose 8 µM)	81.6%
CC1(C)CCC(c2ccc(Cl)cc2)=C(CN2CCN(c3ccc(C(=O)NS(=O)(=O)c4ccc(N[C@H](CCN5CCOCC5)CSc5ccccc5)c(S(=O)(=O)C(F)(F)F)c4)cc3)CC2)C1 + C[As](C)SC[C@H](NC(=O)CC[C@H](N)C(=O)O)C(=O)NCC(=O)O [Darinaparsin] (first compound 2 µM, partner dose 2 µM)	45.8%
N#CC[C@H](C1CCCC1)n1cc(-c2ncnc3[nH]ccc23)cn1 [ruxolitinib] + C[C@]12O[C@H](C[C@]1(O)CO)n1c3ccccc3c3c4c(c5c6ccccc6n2c5c31)CNC4=O [Lestaurtinib] (first compound 5 µM, partner dose 0.02 µM)	63.3%
C[C@@H](Oc1cc(-c2cnn(C3CCNCC3)c2)cnc1N)c1c(Cl)ccc(F)c1Cl [Crizotinib] + C[As](C)SC[C@H](NC(=O)CC[C@H](N)C(=O)O)C(=O)NCC(=O)O [Darinaparsin] (first compound 1 µM, partner dose 2 µM)	92.5%
CC[C@]1(O)C[C@H]2CN(CCc3c([nH]c4ccccc34)[C@@](C(=O)OC)(c3cc4c(cc3OC)N(C=O)[C@H]3[C@@](O)(C(=O)OC)[C@H](OC(C)=O)[C@]5(CC)C=CCN6CC[C@]43[C@@H]65)C2)C1 [vincristine] + Cn1cc(C2=C(c3cn(C4CCN(Cc5ccccn5)CC4)c4ccccc34)C(=O)NC2=O)c2ccccc21 [Enzastaurin] (first compound 0.0005 µM, partner dose 4 µM)	26.6%
CCCS(=O)(=O)Nc1ccc(F)c(C(=O)c2c[nH]c3ncc(Cl)cc23)c1F + C[As](C)SC[C@H](NC(=O)CC[C@H](N)C(=O)O)C(=O)NCC(=O)O [Darinaparsin] (first compound 0.4 µM, partner dose 2 µM)	83.6%
O=C(Nc1cc(C(F)(F)F)cc(C(F)(F)F)c1)c1cc(Cl)ccc1O + C[C@]12O[C@H](C[C@]1(O)CO)n1c3ccccc3c3c4c(c5c6ccccc6n2c5c31)CNC4=O [Lestaurtinib] (first compound 0.08 µM, partner dose 0.02 µM)	67%
N#CC[C@H](C1CCCC1)n1cc(-c2ncnc3[nH]ccc23)cn1 [ruxolitinib] + C[As](C)SC[C@H](NC(=O)CC[C@H](N)C(=O)O)C(=O)NCC(=O)O [Darinaparsin] (first compound 5 µM, partner dose 2 µM)	99.2%
CS(=O)(=O)c1ccc(C(=O)Nc2ccc(Cl)c(-c3ccccn3)c2)c(Cl)c1 [vismodegib] + N.N.[Cl][Pt][Cl] [cisplatin] (first compound 5 µM, partner dose 8 µM)	108%
C=CCNC1=C2C[C@@H](C)C[C@H](OC)[C@H](O)[C@@H](C)/C=C(\C)[C@H](OC(N)=O)[C@@H](OC)/C=C\C=C(/C)C(=O)NC(=CC1=O)C2=O [Tanespimycin] + C[As](C)SC[C@H](NC(=O)CC[C@H](N)C(=O)O)C(=O)NCC(=O)O [Darinaparsin] (first compound 0.01 µM, partner dose 2 µM)	61.1%
CNC(=O)c1cc(Oc2ccc(NC(=O)Nc3ccc(Cl)c(C(F)(F)F)c3)cc2)ccn1 [sorafenib] + C[As](C)SC[C@H](NC(=O)CC[C@H](N)C(=O)O)C(=O)NCC(=O)O [Darinaparsin] (first compound 2 µM, partner dose 2 µM)	79.1%
Cc1cn(-c2cc(NC(=O)c3ccc(C)c(Nc4nccc(-c5cccnc5)n4)c3)cc(C(F)(F)F)c2)cn1 [nilotinib] + C[As](C)SC[C@H](NC(=O)CC[C@H](N)C(=O)O)C(=O)NCC(=O)O [Darinaparsin] (first compound 1 µM, partner dose 2 µM)	80.5%
CS(=O)(=O)c1ccc(C(=O)Nc2ccc(Cl)c(-c3ccccn3)c2)c(Cl)c1 [vismodegib] + C[As](C)SC[C@H](NC(=O)CC[C@H](N)C(=O)O)C(=O)NCC(=O)O [Darinaparsin] (first compound 5 µM, partner dose 2 µM)	130%
CN(c1ncccc1CNc1nc(Nc2ccc3c(c2)CC(=O)N3)ncc1C(F)(F)F)S(C)(=O)=O + C[As](C)SC[C@H](NC(=O)CC[C@H](N)C(=O)O)C(=O)NCC(=O)O [Darinaparsin] (first compound 0.4 µM, partner dose 2 µM)	82.8%
CC(=O)O[C@@]12CO[C@@H]1C[C@H](O)[C@@]1(C)C(=O)[C@H](O)C3=C(C)[C@@H](OC(=O)[C@H](O)[C@@H](NC(=O)OC(C)(C)C)c4ccccc4)C[C@@](O)([C@@H](OC(=O)c4ccccc4)[C@H]21)C3(C)C [Docetaxel] + N.N.[Cl][Pt][Cl] [cisplatin] (first compound 0.0005 µM, partner dose 8 µM)	36.8%
COc1cc([C@@H]2c3cc4c(cc3[C@@H](O[C@@H]3O[C@@H]5CO[C@@H](C)O[C@H]5[C@H](O)[C@H]3O)[C@H]3COC(=O)[C@H]23)OCO4)cc(OC)c1O [etoposide] + Cn1cc(C2=C(c3cn(C4CCN(Cc5ccccn5)CC4)c4ccccc34)C(=O)NC2=O)c2ccccc21 [Enzastaurin] (first compound 0.1 µM, partner dose 4 µM)	103%
O=C(Nc1cc(C(F)(F)F)cc(C(F)(F)F)c1)c1cc(Cl)ccc1O + C[As](C)SC[C@H](NC(=O)CC[C@H](N)C(=O)O)C(=O)NCC(=O)O [Darinaparsin] (first compound 0.08 µM, partner dose 2 µM)	95%
COc1cc([C@@H]2c3cc4c(cc3[C@@H](O[C@@H]3O[C@@H]5CO[C@@H](C)O[C@H]5[C@H](O)[C@H]3O)[C@H]3COC(=O)[C@H]23)OCO4)cc(OC)c1O [etoposide] + C[As](C)SC[C@H](NC(=O)CC[C@H](N)C(=O)O)C(=O)NCC(=O)O [Darinaparsin] (first compound 0.1 µM, partner dose 2 µM)	101%
C[C@@H](N)c1ccc(C(=O)Nc2ccnc3[nH]ccc23)cc1 + C[C@]12O[C@H](C[C@]1(O)CO)n1c3ccccc3c3c4c(c5c6ccccc6n2c5c31)CNC4=O [Lestaurtinib] (first compound 2 µM, partner dose 0.02 µM)	55.4%
Cc1cc(Nc2cc(N3CCN(C)CC3)nc(/C=C/c3ccccc3)n2)n[nH]1 + N.N.[Cl][Pt][Cl] [cisplatin] (first compound 0.2 µM, partner dose 8 µM)	79.8%
CC1(C)CCC(c2ccc(Cl)cc2)=C(CN2CCN(c3ccc(C(=O)NS(=O)(=O)c4ccc(N[C@H](CCN5CCOCC5)CSc5ccccc5)c(S(=O)(=O)C(F)(F)F)c4)cc3)CC2)C1 + C[C@]12O[C@H](C[C@]1(O)CO)n1c3ccccc3c3c4c(c5c6ccccc6n2c5c31)CNC4=O [Lestaurtinib] (first compound 2 µM, partner dose 0.02 µM)	40.3%
CCCCCCCCc1ccc(CCC(N)(CO)CO)cc1 [fingolimod] + N.N.[Cl][Pt][Cl] [cisplatin] (first compound 10 µM, partner dose 8 µM)	12.5%
Cn1c(=O)n(-c2ccc(C(C)(C)C#N)cc2)c2c3cc(-c4cnc5ccccc5c4)ccc3ncc21 + N.N.[Cl][Pt][Cl] [cisplatin] (first compound 0.02 µM, partner dose 8 µM)	68%
Cc1cn(-c2cc(NC(=O)c3ccc(C)c(Nc4nccc(-c5cccnc5)n4)c3)cc(C(F)(F)F)c2)cn1 [nilotinib] + N.N.[Cl][Pt][Cl] [cisplatin] (first compound 1 µM, partner dose 8 µM)	71.8%
Cc1cc(SCc2sc(-c3ccc(C(F)(F)F)c(F)c3)nc2C)ccc1OCC(=O)O + COc1cc2ncnc(Nc3ccc(Oc4ccccc4)cc3)c2cc1OC [SrcI1] (first compound 10 µM, partner dose 10 µM)	62.8%
